The supplement of paper PMC10369915
The other results are listed elsewhere or left out. Rule as the data show it: active = 3.2 or more and inactive = the rest. The signal is at background level for most entries.

Target: SHP2 C-SH2 domain E139D
Experiment: enrichment score (SH2-bound / input frequency) (ratio); bacterial display of known human phosphotyrosine sites (pTyr-Var adds point mutants) read by sequencing; higher = stronger binding; tyrosines were phosphorylated by kinases first
Conditions: peptide library: pTyr-Var
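Also: displayed peptides selected on beads carrying the immobilized SH2 domain, with library peptides lacking any tyrosine serving as negative controls.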

Enrichment score, inactive:
HSRTRYERNIE [F2_Y434] 0.821, LSSEMCVKSYT [F5_Y2149_Y2149C] 0.576, LSSEMCVKSFT [F5_Y2149_Y2149C_YF] 0.605, MYVKSYTIHYS [F5_Y2153] 0.965, TFVKSYTIHFS [F5_Y2153_M2148T_YF] 1.19, MFVKSYTIHFS [F5_Y2153_YF] 0.905, ERLWVYGMSSS [F8_Y1728_D1727V] 0.616, QKKEEYKMALY [F8_Y1990_R1985Q] 0.995, RKKEEYKMALF [F8_Y1990_YF] 0.714, RISRKYKKVRF [F8_Y442_G439S] 0.324, RFGRKYKKVRF [F8_Y442_I438F] 0.203, QIGRKYKKVRF [F8_Y442_R437Q] 0.221, RIGRKCKKVRF [F8_Y442_Y442C] 0.205, VRFMAYTDETF [F8_Y450] 1.06, VRFMAYTDEIF [F8_Y450_T454I] 1.14, VRFMANTDETF [F8_Y450_Y450N] 1.06, IQKWEYVPLGP [FAH_Y244] 1.1, IQKWEYVPLGT [FAH_Y244_P249T] 1.12

Target: SHP2 C-SH2 domain wild-type
Experiment: as above
Conditions: peptide library: pTyr-Var

Enrichment score, inactive:
HSRTRYERNIE [F2_Y434] 0.488, LSSEMCVKSYT [F5_Y2149_Y2149C] 0.531, LSSEMCVKSFT [F5_Y2149_Y2149C_YF] 0.802, MYVKSYTIHYS [F5_Y2153] 1.01, TFVKSYTIHFS [F5_Y2153_M2148T_YF] 1.4, MFVKSYTIHFS [F5_Y2153_YF] 0.835, ERLWVYGMSSS [F8_Y1728_D1727V] 0.756, QKKEEYKMALY [F8_Y1990_R1985Q] 0.755, RKKEEYKMALF [F8_Y1990_YF] 0.626, RISRKYKKVRF [F8_Y442_G439S] 0.328, RFGRKYKKVRF [F8_Y442_I438F] 0.284, QIGRKYKKVRF [F8_Y442_R437Q] 0.535, RIGRKCKKVRF [F8_Y442_Y442C] 0.295, VRFMAYTDETF [F8_Y450] 0.967, VRFMAYTDEIF [F8_Y450_T454I] 0.884, VRFMANTDETF [F8_Y450_Y450N] 0.953, IQKWEYVPLGP [FAH_Y244] 1.09, IQKWEYVPLGT [FAH_Y244_P249T] 1.23

Target: SHP2 N-SH2 domain L43F
Experiment: as above
Conditions: peptide library: pTyr-Var

Enrichment score, inactive:
HSRTRYERNIE [F2_Y434] 0.504, LSSEMCVKSYT [F5_Y2149_Y2149C] 0.489, LSSEMCVKSFT [F5_Y2149_Y2149C_YF] 0.955, MYVKSYTIHYS [F5_Y2153] 0.91, TFVKSYTIHFS [F5_Y2153_M2148T_YF] 0.887, MFVKSYTIHFS [F5_Y2153_YF] 0.801, ERLWVYGMSSS [F8_Y1728_D1727V] 0.801, QKKEEYKMALY [F8_Y1990_R1985Q] 0.719, RKKEEYKMALF [F8_Y1990_YF] 0.812, RISRKYKKVRF [F8_Y442_G439S] 0.265, RFGRKYKKVRF [F8_Y442_I438F] 0.323, QIGRKYKKVRF [F8_Y442_R437Q] 0.342, RIGRKCKKVRF [F8_Y442_Y442C] 0.231, VRFMAYTDETF [F8_Y450] 1.13, VRFMAYTDEIF [F8_Y450_T454I] 0.881, VRFMANTDETF [F8_Y450_Y450N] 1.06, IQKWEYVPLGP [FAH_Y244] 1.05, IQKWEYVPLGT [FAH_Y244_P249T] 0.815

Target: SHP2 N-SH2 domain T42A
Experiment: as above
Conditions: peptide library: pTyr-Var

Enrichment score, inactive:
HSRTRYERNIE [F2_Y434] 0.473, LSSEMCVKSYT [F5_Y2149_Y2149C] 0.496, LSSEMCVKSFT [F5_Y2149_Y2149C_YF] 0.718, MYVKSYTIHYS [F5_Y2153] 0.828, TFVKSYTIHFS [F5_Y2153_M2148T_YF] 1.13, MFVKSYTIHFS [F5_Y2153_YF] 0.763, ERLWVYGMSSS [F8_Y1728_D1727V] 0.586, QKKEEYKMALY [F8_Y1990_R1985Q] 0.684, RKKEEYKMALF [F8_Y1990_YF] 0.624, RISRKYKKVRF [F8_Y442_G439S] 0.346, RFGRKYKKVRF [F8_Y442_I438F] 0.346, QIGRKYKKVRF [F8_Y442_R437Q] 0.572, RIGRKCKKVRF [F8_Y442_Y442C] 0.237, VRFMAYTDETF [F8_Y450] 0.97, VRFMAYTDEIF [F8_Y450_T454I] 0.921, VRFMANTDETF [F8_Y450_Y450N] 0.907, IQKWEYVPLGP [FAH_Y244] 1.06, IQKWEYVPLGT [FAH_Y244_P249T] 1.11

Target: SHP2 N-SH2 domain T52S
Experiment: as above
Conditions: peptide library: pTyr-Var

Enrichment score, inactive:
HSRTRYERNIE [F2_Y434] 0.68, LSSEMCVKSYT [F5_Y2149_Y2149C] 0.367, LSSEMCVKSFT [F5_Y2149_Y2149C_YF] 0.675, MYVKSYTIHYS [F5_Y2153] 0.855, TFVKSYTIHFS [F5_Y2153_M2148T_YF] 0.918, MFVKSYTIHFS [F5_Y2153_YF] 0.736, ERLWVYGMSSS [F8_Y1728_D1727V] 0.83, QKKEEYKMALY [F8_Y1990_R1985Q] 0.736, RKKEEYKMALF [F8_Y1990_YF] 0.743, RISRKYKKVRF [F8_Y442_G439S] 0.18, RFGRKYKKVRF [F8_Y442_I438F] 0.266, QIGRKYKKVRF [F8_Y442_R437Q] 0.232, RIGRKCKKVRF [F8_Y442_Y442C] 0.564, VRFMAYTDETF [F8_Y450] 1.1, VRFMAYTDEIF [F8_Y450_T454I] 0.915, VRFMANTDETF [F8_Y450_Y450N] 0.942, IQKWEYVPLGP [FAH_Y244] 1.12, IQKWEYVPLGT [FAH_Y244_P249T] 1.02

Target: SHP2 N-SH2 domain wild-type
Experiment: as above
Conditions: peptide library: pTyr-Var

Enrichment score, inactive:
HSRTRYERNIE [F2_Y434] 0.772, LSSEMCVKSYT [F5_Y2149_Y2149C] 0.495, LSSEMCVKSFT [F5_Y2149_Y2149C_YF] 0.938, MYVKSYTIHYS [F5_Y2153] 1.07, TFVKSYTIHFS [F5_Y2153_M2148T_YF] 1.42, MFVKSYTIHFS [F5_Y2153_YF] 0.715, ERLWVYGMSSS [F8_Y1728_D1727V] 0.873, QKKEEYKMALY [F8_Y1990_R1985Q] 0.874, RKKEEYKMALF [F8_Y1990_YF] 0.735, RISRKYKKVRF [F8_Y442_G439S] 0.268, RFGRKYKKVRF [F8_Y442_I438F] 0.239, QIGRKYKKVRF [F8_Y442_R437Q] 0.374, RIGRKCKKVRF [F8_Y442_Y442C] 0.322, VRFMAYTDETF [F8_Y450] 1.21, VRFMAYTDEIF [F8_Y450_T454I] 0.869, VRFMANTDETF [F8_Y450_Y450N] 1.06, IQKWEYVPLGP [FAH_Y244] 1.42, IQKWEYVPLGT [FAH_Y244_P249T] 1.09
